Measured values published in patent US5922554A, “Inhibition of cellular uptake of cholesterol” (The Regents of the University of California, priority 1996, dated 1999).

Test system: fibroblast monolayers
Assay: Influx/uptake of ^3 H-FC (free cholesterol) from labeled LDL (or plasma, HDL) into normal fibroblast monolayers
Format: cell-based, human
Conditions: proteinase K pretreatment (10 μg ml^-1, 8-10 min); 4 experiments

B1: proteinase K: proteinase K (final concentration 10 μg ml^-1) (protein, UniProt P06873 106-384, looked up)
Proteinase K: AAQTNAPWGLARISSTSPGTSTYYYDESAGQGSCVYVIDTGIEASHPEFEGRAQMVKTYYYSSRDGNGHGTHCAGTVGSRTYGVAKKTQLFGVKVLDDNGSGQYSTIIAGMDFVASDKNNRNCPKGVVASLSLGGGYSSSVNSAAARLQSSGVMVAVAAGNNNADARNYSPASEPSVCTVGASDRYDRRSSFSNYGSVLDIFGPGTSILSTWIGGSTRSISGTSMATPHVAGLAAYLMTLGKTTAASACRYIADTANKGDLSNIPFGTVNLLAYNNYQA
With B1 the “inhibition of uptake of ^3 H-FC LDL label” value was 7±6%.
